# From patent publication US20070149465A1, “COMPOSITIONS AND METHODS FOR PREVENTION AND TREATMENT OF CACHEXIA” (priority 2005, published 2007)
# The source gives many values for each of these; only a part stands here.
# Test: Aqueous stability of roxithromycin (% Purity by HPLC)
# Type: physicochemical
# Conditions: 2 mg/mL
# Procedure: Roxithromycin stability was determined for 2 mg/mL [roxithromycin] at 5, 25, and 40° C. as a function of pH and buffer (citrate) concentration. Roxithromycin %Purity was determined by area normalization using a reverse-phase HPLC method that meets the requirements of the EP Monograph. Solution pH values were determined per USP <791>.
structure (smiles),measurement,setting,value
CC[C@H]1OC(=O)[C@H](C)[C@@H](O[C@H]2C[C@@](C)(OC)[C@@H](O)[C@H](C)O2)[C@H](C)[C@@H](O[C@@H]2O[C@H](C)C[C@H](N(C)C)[C@H]2O)[C@](C)(O)C[C@@H](C)/C(=N\OCOCCOC)[C@H](C)[C@@H](O)[C@]1(C)O [roxithromycin],Roxithromycin % Purity By Area Normalization,"5° C., citrate pH 4, 20 mM, 0 mo",98%
same,Roxithromycin % Purity By Area Normalization,"5° C., citrate pH 4, 20 mM, 0.3 mo",78%
same,Roxithromycin % Purity By Area Normalization,"5° C., citrate pH 4, 20 mM, 0.5 mo",77%
same,Roxithromycin % Purity By Area Normalization,"5° C., citrate pH 4, 20 mM, 0.9 mo",77%
same,Roxithromycin % Purity By Area Normalization,"5° C., citrate pH 4, 20 mM, 1.5 mo",75%
same,Roxithromycin % Purity By Area Normalization,"5° C., citrate pH 4, 20 mM, 2.6 mo",74%
same,Roxithromycin % Purity By Area Normalization,"5° C., citrate pH 4, 20 mM, 5.3 mo",69%
same,Roxithromycin % Purity By Area Normalization,"5° C., citrate pH 4, 20 mM, 7.3 mo",67%
same,Roxithromycin % Purity By Area Normalization,"5° C., citrate pH 4, 50 mM, 0 mo",98%
same,Roxithromycin % Purity By Area Normalization,"5° C., citrate pH 4, 50 mM, 0.3 mo",76%
same,Roxithromycin % Purity By Area Normalization,"5° C., citrate pH 4, 50 mM, 0.5 mo",76%
same,Roxithromycin % Purity By Area Normalization,"5° C., citrate pH 4, 50 mM, 0.9 mo",75%
same,Roxithromycin % Purity By Area Normalization,"5° C., citrate pH 4, 50 mM, 1.5 mo",73%
same,Roxithromycin % Purity By Area Normalization,"5° C., citrate pH 4, 50 mM, 2.6 mo",71%
same,Roxithromycin % Purity By Area Normalization,"5° C., citrate pH 4, 50 mM, 5.3 mo",64%
same,Roxithromycin % Purity By Area Normalization,"5° C., citrate pH 4, 50 mM, 7.3 mo",60%
same,Roxithromycin % Purity By Area Normalization,"5° C., citrate pH 5, 20 mM, 0 mo",81%
same,Roxithromycin % Purity By Area Normalization,"5° C., citrate pH 5, 20 mM, 0.3 mo",93%
same,Roxithromycin % Purity By Area Normalization,"5° C., citrate pH 5, 20 mM, 0.5 mo",91%
same,Roxithromycin % Purity By Area Normalization,"5° C., citrate pH 5, 20 mM, 0.9 mo",89%
same,Roxithromycin % Purity By Area Normalization,"5° C., citrate pH 5, 20 mM, 1.5 mo",85%
same,Roxithromycin % Purity By Area Normalization,"5° C., citrate pH 5, 20 mM, 2.6 mo",82%
same,Roxithromycin % Purity By Area Normalization,"5° C., citrate pH 5, 20 mM, 5.3 mo",80%
same,Roxithromycin % Purity By Area Normalization,"5° C., citrate pH 5, 20 mM, 7.3 mo",79%
same,Roxithromycin % Purity By Area Normalization,"5° C., citrate pH 5, 50 mM, 0 mo",78%
same,Roxithromycin % Purity By Area Normalization,"5° C., citrate pH 5, 50 mM, 0.3 mo",88%
same,Roxithromycin % Purity By Area Normalization,"5° C., citrate pH 5, 50 mM, 0.5 mo",85%
same,Roxithromycin % Purity By Area Normalization,"5° C., citrate pH 5, 50 mM, 0.9 mo",84%
same,Roxithromycin % Purity By Area Normalization,"5° C., citrate pH 5, 50 mM, 1.5 mo",81%
same,Roxithromycin % Purity By Area Normalization,"5° C., citrate pH 5, 50 mM, 2.6 mo",79%
same,Roxithromycin % Purity By Area Normalization,"5° C., citrate pH 5, 50 mM, 5.3 mo",78%
same,Roxithromycin % Purity By Area Normalization,"5° C., citrate pH 5, 50 mM, 7.3 mo",77%
same,Roxithromycin % Purity By Area Normalization,"5° C., citrate pH 5, 100 mM, 0 mo",90%
same,Roxithromycin % Purity By Area Normalization,"5° C., citrate pH 5, 100 mM, 0.3 mo",85%
same,Roxithromycin % Purity By Area Normalization,"5° C., citrate pH 5, 100 mM, 0.5 mo",83%
same,Roxithromycin % Purity By Area Normalization,"5° C., citrate pH 5, 100 mM, 0.9 mo",81%
same,Roxithromycin % Purity By Area Normalization,"5° C., citrate pH 5, 100 mM, 1.5 mo",79%
same,Roxithromycin % Purity By Area Normalization,"5° C., citrate pH 5, 100 mM, 2.6 mo",78%
same,Roxithromycin % Purity By Area Normalization,"5° C., citrate pH 5, 100 mM, 5.3 mo",76%
same,Roxithromycin % Purity By Area Normalization,"5° C., citrate pH 5, 100 mM, 7.3 mo",76%
same,Roxithromycin % Purity By Area Normalization,"5° C., citrate pH 6, 20 mM, 0 mo",96%
same,Roxithromycin % Purity By Area Normalization,"5° C., citrate pH 6, 20 mM, 0.3 mo",98%
same,Roxithromycin % Purity By Area Normalization,"5° C., citrate pH 6, 20 mM, 0.5 mo",97%
same,Roxithromycin % Purity By Area Normalization,"5° C., citrate pH 6, 20 mM, 0.9 mo",97%
same,Roxithromycin % Purity By Area Normalization,"5° C., citrate pH 6, 20 mM, 1.5 mo",97%
same,Roxithromycin % Purity By Area Normalization,"5° C., citrate pH 6, 20 mM, 2.6 mo",96%
same,Roxithromycin % Purity By Area Normalization,"5° C., citrate pH 6, 20 mM, 5.3 mo",96%
same,Roxithromycin % Purity By Area Normalization,"5° C., citrate pH 6, 20 mM, 7.3 mo",94%
same,Roxithromycin % Purity By Area Normalization,"5° C., citrate pH 6, 50 mM, 0 mo",92%
same,Roxithromycin % Purity By Area Normalization,"5° C., citrate pH 6, 50 mM, 0.3 mo",97%
same,Roxithromycin % Purity By Area Normalization,"5° C., citrate pH 6, 50 mM, 0.5 mo",96%
same,Roxithromycin % Purity By Area Normalization,"5° C., citrate pH 6, 50 mM, 0.9 mo",96%
same,Roxithromycin % Purity By Area Normalization,"5° C., citrate pH 6, 50 mM, 1.5 mo",95%
same,Roxithromycin % Purity By Area Normalization,"5° C., citrate pH 6, 50 mM, 2.6 mo",93%
same,Roxithromycin % Purity By Area Normalization,"5° C., citrate pH 6, 50 mM, 5.3 mo",90%
same,Roxithromycin % Purity By Area Normalization,"5° C., citrate pH 6, 50 mM, 7.3 mo",87%
same,Roxithromycin % Purity By Area Normalization,"5° C., citrate pH 6, 100 mM, 0 mo",90%
same,Roxithromycin % Purity By Area Normalization,"5° C., citrate pH 6, 100 mM, 0.3 mo",96%
same,Roxithromycin % Purity By Area Normalization,"5° C., citrate pH 6, 100 mM, 0.5 mo",95%
same,Roxithromycin % Purity By Area Normalization,"5° C., citrate pH 6, 100 mM, 0.9 mo",95%
same,Roxithromycin % Purity By Area Normalization,"5° C., citrate pH 6, 100 mM, 1.5 mo",93%
same,Roxithromycin % Purity By Area Normalization,"5° C., citrate pH 6, 100 mM, 2.6 mo",90%
same,Roxithromycin % Purity By Area Normalization,"5° C., citrate pH 6, 100 mM, 5.3 mo",86%
same,Roxithromycin % Purity By Area Normalization,"5° C., citrate pH 6, 100 mM, 7.3 mo",84%
same,Roxithromycin % Purity By Area Normalization,"25° C., citrate pH 5, 100 mM, 0.9 mo",75%
same,Roxithromycin % Purity By Area Normalization,"25° C., citrate pH 5, 100 mM, 1.5 mo",73%
same,Roxithromycin % Purity By Area Normalization,"25° C., citrate pH 5, 100 mM, 2.6 mo",67%
same,Roxithromycin % Purity By Area Normalization,"25° C., citrate pH 5, 100 mM, 5.3 mo",60%
same,Roxithromycin % Purity By Area Normalization,"25° C., citrate pH 5, 100 mM, 7.3 mo",50%
same,Roxithromycin % Purity By Area Normalization,"25° C., citrate pH 6, 100 mM, 0 mo",98%
same,Roxithromycin % Purity By Area Normalization,"25° C., citrate pH 6, 100 mM, 0.3 mo",94%
same,Roxithromycin % Purity By Area Normalization,"25° C., citrate pH 6, 100 mM, 0.5 mo",92%
same,Roxithromycin % Purity By Area Normalization,"25° C., citrate pH 6, 100 mM, 0.9 mo",89%
same,Roxithromycin % Purity By Area Normalization,"25° C., citrate pH 6, 100 mM, 1.5 mo",85%
same,Roxithromycin % Purity By Area Normalization,"25° C., citrate pH 6, 100 mM, 2.6 mo",81%
same,Roxithromycin % Purity By Area Normalization,"25° C., citrate pH 6, 100 mM, 5.3 mo",78%
same,Roxithromycin % Purity By Area Normalization,"25° C., citrate pH 6, 100 mM, 7.3 mo",76%
